Values marked as one replicate rest on one cluster of the flow cell; about a third of the high ones do not repeat.
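Further: ATP exposure 15 min at 22 °C before imaging.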

The data set concerns ATP. The data set is described as follows: switch fluorescence ratio, 500 uM ATP over buffer (Cy3 cluster intensity, sum of 5 cycles each) (fold (ratio)); higher = stronger signal-on switching upon ATP binding; sequences stand for … in TCGTCGGCAGCGTCAGATGTGTATAAGAGACAGTTTTTTTTTTTTTTTTTTTTTTTTT…TC. The following applies: aptamer strand: ATP DNA aptamer (quencher-CACCTGGGGGAGTATTGCGGAGGAAGG + anchor), 100 nM annealed; ATP concentration: 500 uM; one replicate. Summed up:
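For every switch-domain sequence, the fluorescence ratio is the mean of per-cluster values, each being summed target-cycle Cy3 intensity over summed buffer-cycle Cy3 intensity. Clusters outside 100-1000 RFU were excluded. On a modified Illumina MiSeq flow-cell, the Cy3-labelled switching-strand clusters were annealed to 100 nM quencher-labelled ATP aptamer, imaged in selection buffer and then after 15 min with 500 uM ATP at 22 °C. Five such cycles were run, with NaOH stripping and re-annealing between them.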
TTTAATGTGA: the switch fluorescence ratio worked out at 1.01.
As for ATGTTACGGA, the switch fluorescence ratio is 1.06.
Then TTGACAGAG, with 0.933; and CACTTGTTTA, with 0.975.
For GGGTGGCTTC, the switch fluorescence ratio came out at 0.976.
AGTTTCTCAT: the switch fluorescence ratio worked out at 0.988.
As to CTGTTTTGAT, the switch fluorescence ratio turned out to be 0.961.
Then ACGGATATTT, with 1.03; and ATTTTATAC, with 1.15; and GCCTGAAGGT, with 1.01.
Then TAACGGATTA, with 1.02; and ATGGAAGATG, with 0.958; and TTGTTAGGCA, with 1.12.
As for AGAATATGGC, the figure is 1.03.
In the case of AGCGACAAAC, the switch fluorescence ratio came out at 1.28.
As to ATGTAAAGTA, the switch fluorescence ratio turned out to be 0.981.
Take CGCTAGAACC: the switch fluorescence ratio worked out at 1.06.
As for GAATTACTTT, the figure is 1.02; as for GTTATGTCGG, 0.965; as for AAGAGACTAA, 1.01.
As for GGATGATACG, the figure is 0.978; as for AAATTCACGC, 0.985; as for CTTTTATAGC, 1.03.
Take TCTTATTCCA: the switch fluorescence ratio amounted to 1.14.
TTGACTAAAT: the switch fluorescence ratio stood at 1.02.
For the sequence ACCCCAAACG, the switch fluorescence ratio stood at 1.15.
Then ATGATAAGGA, with 1.04.
As for GCCCCACGAC, the figure is 1.14; as for TAAAAATCGC, 0.942; as for TGATTCGTG, 0.954.
Then TGGGCAACGG, with 1.04; and TTCCTTAGGT, with 1.
Regarding TATACACTAC, the switch fluorescence ratio stood at 1.28.
As for GGACAGGCAG, the switch fluorescence ratio was found to be 1.01.
Then TAGAATGGGA, with 0.975.
Consider CATAAGTTTG, for which the switch fluorescence ratio worked out at 0.968.
As for TCGATTATGA, the figure is 1.01; as for GGTGGTGTTG, 0.994.
As for CGGTATCAAT, the figure is 1.03; as for TTGAAGCGCG, 1.01; as for GGAAATGGTA, 0.987.
Then TGCGACTGTT, with 0.919; and AGCACACT, with 1.15.
As for CAGGGGAATC, the switch fluorescence ratio was found to be 0.975.
Then TATCTGATAG, with 0.987.
In the case of AAGATGGGTT, the switch fluorescence ratio is 0.992.
As for GATTGACTCA, the figure is 0.985; as for AGTACCCCCA, 1.02.
Then TGCAGCGGCC, with 1.01; and TTCATGAAGA, with 0.975; and GTTCTAACGC, with 1.05.
Regarding AGAGCGTGTG, the switch fluorescence ratio is 1.02.
Then CTTACCCGTG, with 0.989; and GGGTCATCCG, with 1.01.
As for GAAAGTATCG, the figure is 0.968; as for ACGGACGAGG, 1.07.
Then ACGACTTCAG, with 1.09.
ATTGCGAACG: the switch fluorescence ratio came to 1.15.
As for TAACACAAA, the figure is 1.03; as for ACCAAGAGAG, 1.03; as for GCAAAGCGTT, 1.01.
TCGTTAGTAG: the switch fluorescence ratio is 0.978.
As for GAGTGCGGCC, the figure is 1.04; as for GGGCTCCACA, 1.02; as for TTGATTCAGG, 1.02.
On to TGCCGATTGA, for which the switch fluorescence ratio is 1.01.
Then CCGGTTAGAT, with 1.03; and CTGGGTAGTG, with 0.974.
As for GCAAAATCCA, the figure is 1.02; as for CGGTAAGTTT, 0.992.
As for CCCTACATGG, the figure is 1.04.
For the sequence GGATCCTTGA, the switch fluorescence ratio was 1.03.
Take CTCCTCACGA: the switch fluorescence ratio is 1.73.
As for TCCAATTCGG, the figure is 1; as for GGCGACAAGC, 1.01.
Regarding GAACTTACGC, the switch fluorescence ratio was 1.23.
As for TTGTGAGGCC, the figure is 0.98; as for TGTTCGCTTT, 1.05; as for GGTAACAGGC, 1.05.
Then ACCTGAGCCC, with 1.05.
Then TATTATGTCT, with 0.993.
Consider GACGTCATCG, for which the switch fluorescence ratio was determined as 0.912.
On to TATCCTTATT, for which the switch fluorescence ratio was 0.957.
Then TATGCTAAGC, with 0.979; and AAACCCTGCG, with 1.08.
Consider TTAAGCTACT, for which the switch fluorescence ratio was determined as 1.13.
Regarding GGAAGGGAGT, the switch fluorescence ratio was 1.06.
For AATTATGAAC, the switch fluorescence ratio worked out at 1.05.
Consider TCTCATGTCC, for which the switch fluorescence ratio came to 0.97.
As for TCGAAACTCG, the figure is 1.08.
Then GGTGTTTCC, with 0.97; and TAGTAATTGT, with 1.04; and GGAACACGGG, with 1.
As for TAAGGCGATC, the figure is 1.08; as for CAATGTGGTC, 1.03; as for TGTCGGCATC, 1.02.
With TACCGTCCAC, the switch fluorescence ratio stood at 1.25.
As for TCAATATGAG, the figure is 1.03; as for TTTACATCG, 1.1.
In the case of TAAAGAACCC, the switch fluorescence ratio was found to be 1.01.
Then GGACGGTCAT, with 1.03; and TGTTTGTAC, with 1.07; and TACAATGTAT, with 0.951.
Then AAAGTTCGCC, with 1.01; and AGTCTGTTAT, with 0.988; and TGTGTGGCAC, with 0.985.
For AGCTGGTGAT, the switch fluorescence ratio worked out at 1.03.
As for ATGAGTGCGG, the switch fluorescence ratio is 0.978.
Then TCCAGAGGAA, with 1.05.
As for GTGCGGAGGA, the figure is 1.05; as for ATAGTTAGTT, 0.977; as for TGTCAGAACC, 0.985.
ATTCTTAAGT: the switch fluorescence ratio was found to be 0.986.
Then GAAAATTTGT, with 0.98; and ATAAGCAAGT, with 1.1.
Then TATGGTGGGA, with 0.985; and GGTGGGACGT, with 1.06; and AGGCGCACG, with 0.981.
Then GAGTCGTCTG, with 0.986.
For TCCATAGACT, the switch fluorescence ratio was 1.01.

Values taken from the supplement of paper PMC10126150.
